# About 530 (0.13%) of roughly 410,000 compounds were called active. The shares of active, inactive and inconclusive entries below differ from those in the screen. Calls follow the shape of the dose curve; as a rule, active = well fitted inhibition curve with a large enough effect; inconclusive = small, poorly fitted or top-dose-only effect, or another doubt; inactive = no such curve, though single readings can be large or run the other way. A potency beside an inconclusive call is a rough fit, not a confirmed value.
# Assay: qHTS of GLP-1 Receptor Inverse Agonists: Cytotox Screen
# Conditions: HEK293 cAMP-luciferase reporter cells, luminescence, 24 h; activity change, negative = inhibition: at 38.3 µM (top of the series)
# Method in brief: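 Luminescence readout: signal drop marks cytotoxicity. Plated cells grew 12 h at 37 °C, 5% CO2, received 23 nL compound for 24 h, then got luciferase reagent, read after 12 min at RT.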
# % is scaled to controls: 0 for no effect and ±100 for the full control effect; potency is read from the fitted curve at half-maximal effect.
SMILES,Potency,"activity change, negative = inhibition"
Cc1ccc(CC2(OCCN(C)C)CCC(C(C)(C)C)CC2)cc1 (stereo unspecified),"inconclusive: 28.2 µM [inhibitor, single point]",
O=C(Cc1c(Cl)cccc1Cl)Nc1cccnc1,,inactive: -1.52%
CCOc1ccc2c(c1)-c1c(ssc1=S)C(C)(C)N2C(=O)c1ccco1,"inconclusive: 7.08 µM [inhibitor, partial curve, poor fit]",
O=c1[nH]c(/C(=N\O)c2ccccc2)no1,"inconclusive: 12.6 µM [inhibitor, single point]",
c1ccc(Nc2nc(-c3ccccn3)cs2)cc1,active: 3.16 µM,
C=CCn1c(O)c(N=NC(=S)Nc2cccc(C)c2)c2ccccc21,"inconclusive: 7.94 µM [inhibitor, partial curve]",
O=C1Cc2c([nH]c3ccc(Br)cc23)-c2ccccc2N1,,inactive: -12.8%
COCCNC(=O)c1cccc(OC2CCN(C(C)COc3ccccc3)CC2)c1 (stereo unspecified),"inconclusive: 31.6 µM [inhibitor, single point]",
Cc1ccc(OCC(=O)Nc2ccccc2C(=O)OCc2cc(=O)n3nc(C4CC4)sc3n2)cc1,,inactive: -0.602%
CCn1cc(S(=O)(=O)c2ccc(OC)cc2)c(=O)c2cc(F)c(N3CCC(C)CC3)cc21,,inactive: -4.06%
COc1ccc(N2CCN(CC(O)COC(C)(C)C)CC2)cc1 (stereo unspecified),"inconclusive: 2.51 µM [inhibitor, full curve, poor fit]",
Oc1ccc(-c2nc3ccccn3c2Nc2ccc3c(c2)OCCO3)cc1,,inactive: -3.51%
Cc1[nH]oc(=O)c1N=Nc1ccccc1,"inconclusive: 12.6 µM [inhibitor, single point]",
Cc1c(/C=N/NC(N)=O)c2ccccn2c1C(=O)c1ccc(F)cc1,"inconclusive: 11.2 µM [inhibitor, single point]",
Cc1cc(C)c2c(c1)-c1c(ssc1=S)C(C)(C)N2C(=O)CSc1nncn1C,"inconclusive: 11.2 µM [inhibitor, partial curve, poor fit]",
Cc1cccc(C(=O)NNC(=O)c2ccccc2O)c1,,inactive: -1.2%
C=C1CCN([C@@H](CC(C)C)C(=O)NCc2ccc(Cl)c(Cl)c2)S(=O)(=O)c2ccccc21,,inactive: 3.19%
COc1cccc(N=Nc2c(N)[nH][nH]c2=O)c1,"inconclusive: 10 µM [inhibitor, partial curve, poor fit]",
CCN1CCN(C(=O)c2ccc3nc(-c4ccccc4)c(-c4ccccc4)nc3c2)CC1,,inactive: -1.44%
N#Cc1ccc(CSc2nnc(-c3ccncc3)n2CCc2ccccc2)cc1,"inconclusive: 10 µM [inhibitor, partial curve, poor fit]",
O=C(Nc1cccc(C(F)(F)F)c1)C1CCN(c2nnc(-n3cccc3)s2)CC1,,inactive: -7.09%
Cc1ccc(-c2ccc(CCC(=O)O)n2C(C)C)cc1,"inconclusive: 28.2 µM [inhibitor, single point]",
CCOC(=O)CCc1c(C)nc(SCCN2CCCC2)c(C#N)c1C,"inconclusive: 10 µM [inhibitor, partial curve]",
COc1ccc(/C=C/c2nc3ccccc3n2C)cc1,"inconclusive: 14.1 µM [inhibitor, single point]",

SMILES,Potency,"activity change, negative = inhibition"
Clc1ccc(OCCN2CCOCC2)cc1Cl,,inactive: 0.197%
CCN(CC(=O)NC(C)(C)C)C(=O)COc1c(Cl)cc(Cl)c2ccc(C)nc12,"inconclusive: 10 µM [inhibitor, partial curve]",
CC1CCCN(CCOCCOc2ccc(Cl)cc2Br)C1 (stereo unspecified),"inconclusive: 22.4 µM [inhibitor, single point]",
CSc1ccccc1NC(=S)NC1CCCCC1,"inconclusive: 20 µM [inhibitor, single point]",
COC(/C(=N/O)c1ccc(Cl)cc1)c1ccccc1 (stereo unspecified),,inactive: -11.5%
COc1ccc(N2C(=O)C3C(C2=O)C(C(=O)c2ccc(Cl)cc2)N2CCCC32)cc1 (stereo unspecified),"inconclusive: 5.01 µM [inhibitor, full curve]",
Cc1nnc(Sc2c(-c3ccccc3)c3ccc(Cl)cc3[nH]c2=O)s1,"inconclusive: 28.2 µM [inhibitor, single point]",
CCC(=O)N1CCN(c2ccccc2NC(=O)c2ccc(-c3cccc([N+](=O)[O-])c3)o2)CC1,"inconclusive: 10 µM [inhibitor, partial curve]",
COc1cc(/C=C2\SC(=O)N(CC(=O)Nc3ccccc3F)C2=O)cc(Cl)c1O,,inactive: 61.1%
Cc1ccc(C(=O)OC/C(O)=C(\C#N)c2nc3ccccc3[nH]2)cc1S(=O)(=O)N1CCOCC1,"inconclusive: 12.6 µM [inhibitor, single point]",
COc1cc(OC)cc(C(=O)Nc2ccc(-c3nc4ccccc4o3)c(O)c2)c1,"inconclusive: 22.4 µM [inhibitor, single point]",
COCCNC(=S)N1CCC(NC(=O)Nc2ccc(C)cc2)CC1,,inconclusive: -30.9% [inhibitor]
CCCS(=O)(=O)c1ncc(Cl)c(C(=O)N2CCN(c3ccc(OC)cc3)CC2)n1,"inconclusive: 10 µM [inhibitor, partial curve, poor fit]",
COc1ccc(C(=O)C2CCCN(Cc3cccn3-c3ccccn3)C2)c(OC)c1 (stereo unspecified),"inconclusive: 10 µM [inhibitor, partial curve, poor fit]",
O=C1c2ccccc2S(=O)(=O)c2cc(C(=O)N(c3ccccn3)c3ccccn3)ccc21,,inactive: -3.25%
O=C(CCCCn1c(=O)c2ccccc2n(Cc2ccc(Cl)cc2)c1=O)NCc1ccccc1Cl,,inactive: -5.8%
Cc1cc(OC(C)C(=O)N(Cc2ccco2)Cc2ccccc2F)cc(C)c1Cl (stereo unspecified),,inactive: 6.31%
Cc1ccc(CCNC(=O)C2CCN(c3nnc(C)c4c(C)n(-c5ccccc5)nc34)CC2)cc1,,inactive: 0.766%
CCCCCCCCOC(=O)c1cc([N+](=O)[O-])c(Sc2ncnc3nc[nH]c23)c([N+](=O)[O-])c1,"inconclusive: 31.6 µM [inhibitor, single point]",
Cc1occc(=O)c1OC(=O)Nc1ccc(Cl)c(Cl)c1,"inconclusive: 22.4 µM [inhibitor, single point]",
CCOC(=O)N1CCN(C(=S)NC(=O)c2ccc(F)c(F)c2)CC1,"inconclusive: 12.6 µM [inhibitor, single point]",
COc1ccccc1NC(=O)N(Cc1ccco1)Cc1cc2cc(C)cc(C)c2[nH]c1=O,"inconclusive: 5.62 µM [inhibitor, partial curve, poor fit]",
O=C(c1nc(-c2ccc(Cl)cc2)n2c1CCCCC2)N1CCN(c2ccccc2F)CC1,,inactive: -13.3%
CCOC(=O)c1c(C)c(/C=N/Nc2ccccc2)n(C)c1C,"inconclusive: 11.2 µM [inhibitor, single point]",

SMILES,Potency,"activity change, negative = inhibition"
COc1ccccc1NS(=O)(=O)c1cccc(NC(=O)Nc2ccccc2)c1,"inconclusive: 12.6 µM [inhibitor, single point]",
COc1ccc(CNC(=S)Nc2ccc3nc(N4CCN(C)CC4)cc(C)c3c2)cc1,"inconclusive: 22.4 µM [inhibitor, single point]",
O=S(=O)(Nc1ccc(-c2csc(-c3ccccc3)n2)cc1)c1ccc(F)cc1,"inconclusive: 22.4 µM [inhibitor, single point]",
O=C1CSC(=Nc2cccc(Cl)c2Cl)N1Cc1cccnc1,"inconclusive: 11.2 µM [inhibitor, single point]",
O=C(NC(=S)N(Cc1ccccc1)Cc1ccccc1)C1CCCCC1,,inactive: -15.6%
CCN(CC)c1ccc(N=Cc2cc(Br)ccc2O)cc1,"inconclusive: 1.78 µM [inhibitor, partial curve, poor fit]",
COc1ccc(/C=N/Nc2nc(NCc3ccco3)nc(Nc3ccc(OC)cc3)n2)cc1,,inactive: -16.9%
Cc1cc(C(=O)CSc2nnc(-c3ccco3)o2)c(C)n1-c1ccc2c(c1)OCCO2,,inactive: 3.55%
O=C(Cc1cccs1)NCCS(=O)(=O)N1CCN(c2ccccc2F)CC1,"inconclusive: 14.1 µM [inhibitor, single point]",
C=CCn1c(CCc2cc(C(C)(C)C)c(O)c(C(C)(C)C)c2)n[nH]c1=S,active: 11.2 µM,
CCOC(=O)c1c(-c2ccccc2)oc2ccc(NS(=O)(=O)c3ccc(OC)cc3)cc12,"inconclusive: 3.55 µM [inhibitor, partial curve, poor fit]",
Cn1cc(CNC(=O)c2ccc(OC3CCN(Cc4ccccn4)CC3)cc2)cn1,"inconclusive: 28.2 µM [inhibitor, single point]",
CC(=O)N(CCc1ccccc1)c1ccc2c(c1)C1CC2CCN1C(=O)OCc1ccccc1 (stereo unspecified),"inconclusive: 11.2 µM [inhibitor, single point]",
C=CCn1c(O)c(C2=c3ccccc3=NC2=O)s/c1=N/c1nccs1,,inactive: 0.749%
CCC1(c2ccccc2)NC(=S)N(c2ccc(C)cc2)N1 (stereo unspecified),,inactive: 7.89%
CCCc1cc(N2CCN(c3ccccn3)CC2)n2nc(C)c(-c3ccccc3)c2n1,,inactive: 2.84%
O=[N+]([O-])c1ccc(O)c(N=Cc2sc3ccccc3c2O)c1,"inconclusive: 14.1 µM [inhibitor, single point]",
CCCN(CC(=O)Nc1ccccc1C)C(=O)COc1c(Cl)cccc1Cl,"inconclusive: 3.98 µM [inhibitor, partial curve, poor fit]",
COc1cccc(-c2nc(NCc3ccccc3)c3ccccc3n2)c1O,"inconclusive: 28.2 µM [inhibitor, single point]",
CC(C)N(Cc1nc(-c2ccc(Cl)cc2)no1)Cc1nccn1C,,inactive: -6.09%
COc1ccc(CNCCCSc2ncccn2)cc1OC,,inactive: 3.26%
COc1ccccc1Nc1cc2cc(Br)ccc2c(=O)[nH]1,"inconclusive: 10 µM [inhibitor, single point]",
CC(C)(C)[C@@H]1CCC(=O)N(CC[C@H](Sc2ccccc2)c2ccccc2)CC1,"inconclusive: 0.501 µM [inhibitor, full curve, poor fit]",

# Source: PubChem BioAssay AID624418 (National Center for Advancing Translational Sciences (NCATS), 2012)
